Laboratory results from PubChem BioAssay AID485313 (National Center for Advancing Translational Sciences (NCATS), 2010).
Screen size: about 320,000 compounds; about 7,600 (2.4%) were called active. Inconclusive results, whose numbers are uncertain, are shown with a selection of clear calls. Calls come from the whole dose curve; as a rule, active = well fitted activation curve with a large enough effect; inconclusive = small, poorly fitted or top-dose-only effect; inactive = no such curve, though single readings can be large or run the other way. Potencies beside an inconclusive call are fits to weak or partial responses and may not hold up.

Assay: qHTS Assay for NPC1 Promoter Activators; note: nearly all actives have a fitted effect of over 60% in size;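 for activation: reporter is driven by a mutant NPC1 promoter; % of control where 0% means no effect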
Settings: Huh7 NPC1 promoter luciferase reporter, 24 h; series mostly up to 9.22 µM; activation: at the top concentration
Procedure, shortened: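 Quantitative HTS used a cell-based reporter: Huh7 cells stably bearing the NPC1 promoter upstream of luciferase were treated with compounds for 24 h, and promoter activation was read as luminescence.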
Potency is the fitted concentration of half-maximal effect; tags give direction and shape of the fitted curve.

Potency, inconclusive:
O=C(Nc1ccccc1)Nc1ccccc1Br 3.98 µM [activator, partial curve]
COc1ccccc1Nc1nc(-c2cccnc2)cs1 2 µM [activator, partial curve]
CC1CCC(NC(=O)Cn2c(=O)[nH]c3ccsc3c2=O)CC1 (stereo not drawn) 2.51 µM [activator, partial curve]
O=C(NCc1ccccc1)c1cc(-c2cccs2)on1 2.51 µM [activator, partial curve]
COc1ccc(OCc2ccc(-c3nc4ccccc4c(=O)n3N)o2)cc1 3.55 µM [activator, single point]
Nc1nc(N)nc(-c2cc(O)ccc2O)n1 2.82 µM [activator, partial curve]
O=C(CSc1nnc(-c2ccccn2)o1)Nc1ccccc1C(F)(F)F 2.51 µM [activator, partial curve]
COc1ccc(N2C(=O)CC(Sc3nc4c(cc3C#N)CCC4)C2=O)cc1 (stereo not drawn) 5.01 µM [activator, single point]
O=C(Nc1ccn(Cc2ccc(Cl)cc2)n1)c1ccccc1 3.55 µM [activator, partial curve]
COC(=O)CNc1c(-c2ccccc2)nc2ccc(Br)cn12 2.51 µM [activator, partial curve]
C/C(=N\NC(=O)CSc1nc(C)cc(C)n1)c1ccc2c(c1)OCCO2 6.31 µM [activator, single point]
O=C(NCCCl)c1ccc(OCc2ccccc2)cc1Cl 1.26 µM [activator, partial curve]
O=Cc1c(OCc2ccccc2)ccc2ccccc12 3.16 µM [activator, single point]
O=C(Nc1ccccc1)Nc1nnc(-c2ccccc2)s1 1.58 µM [activator, partial curve]
Cc1cc(C(=O)Nc2nc3c(s2)CCCC3)cs1 1.41 µM [activator, partial curve]
O=c1c2c3c(sc2nc(NCCOCCO)n1Cc1ccco1)CCCCC3 6.31 µM [activator, single point]
CC(C)C[C@H](NC(=O)c1nc[nH]c1C(=O)N(C)Cc1ccccc1)C(=O)OCc1ccccc1 1.26 µM [activator, single point]
COc1ccc(Nc2cc(C)nc3ncnn23)cc1Cl 0.891 µM [activator, single point]
Clc1cccc(/C=N/Nc2ncnc3ccccc23)c1 5.01 µM [activator, single point]
Cc1ccc(NC(=O)c2ccc3nccnc3c2)c(C)c1 5.62 µM [activator, single point]
COc1ccc(-n2nc(C(=O)NCC(=O)N3CCN(c4ccccc4)CC3)c3ccccc3c2=O)c(OC)c1 3.55 µM [activator, partial curve]
N#Cc1c(/N=C/c2ccc(Br)s2)sc2c1CCC2 5.62 µM [activator, single point]
Cc1ccc(C)c(NC(=S)c2nc3ccccc3s2)c1 4.47 µM [activator, partial curve]
Cn1cccc1/C=N/NC(=O)c1ccccn1 3.55 µM [activator, partial curve]
c1ccc(-c2ccc(-c3nc(-c4ccncc4)no3)cc2)cc1 0.501 µM [activator, partial curve]
COC(=O)c1ccc(CSc2nncn2C)cc1 3.55 µM [activator, partial curve]
O=C(N/N=C/c1ccccc1[N+](=O)[O-])c1cccs1 5.62 µM [activator, single point]
c1ccc(CCNc2nc(-c3cccnc3)cs2)cc1 3.98 µM [activator, single point]
COc1ccc(-c2nn(-c3ccccc3)cc2/C=N/Nc2cccc(C(=O)O)c2)cc1 3.16 µM [activator, partial curve]
O=C(NC1CCCCCC1)c1ccc(OCC2CCCO2)cc1 (stereo not drawn) 3.55 µM [activator, single point]
CC1(C)Cc2nc3sc4c(SCC(=O)O)ncnc4c3cc2CO1 1.58 µM [activator, partial curve]
C/C(=N\NC(=O)c1ccc(O)cc1)c1ccc(NC(=O)Cc2ccccc2)cc1 2.82 µM [activator, partial curve]
O=C(NC12CC3CC(CC(C3)C1)C2)c1ccc(-c2ccc(Br)cc2)o1 3.98 µM [activator, single point]
O=C(NC1CC1)c1cccc(Nc2ccc(-c3ccc4c(c3)OCCO4)nn2)c1 2.82 µM [activator, partial curve]
Cc1cc2ncc(C(=O)Nc3ccsc3C(=O)O)c(C)n2n1 3.16 µM [activator, single point]
COc1ccc(-c2nnn(Cc3ccccc3)n2)cc1 2.82 µM [activator, partial curve]
Cc1ccc(N(CC(=O)Nc2ccc(-c3nc4ccc(C)cc4s3)cc2)S(C)(=O)=O)cc1 3.98 µM [activator, single point]
CS(=O)(=O)N1CCc2cc(C(=O)Nc3ccc(Cl)cc3)ccc21 3.55 µM [activator, partial curve]
CC1CCc2sc(C(=O)Nc3ccc(C(N)=O)cc3)cc2C1 (stereo not drawn) 3.55 µM [activator, single point]
O=C1S/C(=C\c2ccc(N3CCOCC3)o2)C(=O)N1c1ccccc1 6.31 µM [activator, single point]
Cc1cc(C(=O)OCn2nnc3ccccc3c2=O)c(C)n1-c1ccccc1 3.98 µM [activator, partial curve]
COc1ccc(-c2cn3ccc4ccccc4c3n2)cc1 3.98 µM [activator, single point]
CCOC(=O)/C=C/c1cnn(-c2ccccc2)c1 1.26 µM [activator, partial curve]

Potency, active:
CCOC(=O)c1cnn2c(C)cc(-c3ccc(F)cc3)nc12 2.82 µM
CCCC(=O)Nc1ccc(-c2nc3ncccc3o2)cc1 2.24 µM
COc1ccc(-c2nn(-c3ccccc3)cc2N)cc1 3.55 µM
Cc1ccc2c(CC(=O)Nc3sccc3C(N)=O)coc2c1 2 µM
O=C(Nc1ccc(-c2noc(COc3ccccc3Cl)n2)cc1)c1ccco1 3.16 µM
O=C(c1cc2c(ccc3ccccc32)o1)N1CCCCC1 1.26 µM
O=C(NCCc1ccccc1F)c1cccc2cccnc12 3.16 µM
CSc1nnc(NC(=O)c2ccc(S(=O)(=O)N(C)C)cc2)s1 1.58 µM
CC1(C(=O)OCC(=O)c2c[nH]c3ccccc23)CC1(Cl)Cl (stereo not drawn) 3.98 µM
CCN(CC)c1ccc(/C=N/N2CCOCC2)cc1 3.55 µM
CCC1CCc2sc(C(=O)NCC3CCCO3)cc2C1 (stereo not drawn) 2.82 µM
CCOc1ccc2cc(C#N)c(SCC(=O)N3CCOCC3)nc2c1 3.98 µM
Cc1ccc(/C=N/c2sc3c(c2C#N)CCCCC3)o1 4.47 µM
Cc1nc2cc(NC(=O)CCS(=O)(=O)c3ccccc3)ccc2s1 2 µM
COc1ccccc1C(=O)Nc1ccc2c(C)cc(=O)oc2c1 2 µM

activation, inactive:
COc1cc(-c2cc(N)n(S(=O)(=O)c3ccc(F)cc3)n2)cc(OC)c1OC -4.91%
COc1ccc2ccccc2c1CN1CCN(C(=O)c2ccccc2)CC1 0.515%
CCOc1cc(Br)ccc1S(=O)(=O)NCc1ccccc1 -2.88%
COCCN1CCN(c2cc(-c3ccccc3)nc3cc(-c4cccc(F)c4)nn23)CC1 -5.56%
O=C1c2cccc(OCc3ccc(F)cc3)c2CCN1Cc1ccc(F)cc1 -20.6%
CCc1cc2c(=O)c(-c3nc4ccccc4[nH]3)coc2cc1OC(=O)N1CCOCC1 1.74%
Cc1c(NC(=O)CN2CCN(c3ccc(F)cc3)CC2)c(=O)n(-c2ccccc2)n1C -1.41%
N#Cc1c(-c2ccccc2)ccn(Cc2ccccc2Cl)c1=O -1.47%
COc1cc(S(=O)(=O)NCCOC23CC4CC(CC(C4)C2)C3)c(OC)cc1Cl -1.72%
CCC(=O)NNc1nc2c(C)cccc2s1 -3%
CN1CCN(CC(=O)Nc2cccc(S(=O)(=O)N(C)c3ccccc3)c2)CC1 -1.47%
Nc1c(NCc2ccccc2F)c(=O)[nH]c(=O)n1Cc1ccccc1 1.95%
Cc1nc(S/C(=C/c2ccc(-c3ccc(Cl)cc3)o2)C(=O)O)n[nH]1 13.2%
CCCc1cc(=O)n(-c2nc3ccccc3s2)[nH]1 -1.37%
Cc1cc(Nc2ccc(C(=O)O)cc2)n2nc(C)nc2n1 0.378%
Cc1cccc(CSc2nnc([C@@H]3CCCN3C(=O)OC(C)(C)C)o2)c1 -6.44%
O=C(O)c1ccc2c(c1)-c1cc(C(=O)O)ccc1S2(=O)=O -0.859%
O=C(/C=C/c1ccccc1)NNc1ccc(Cl)cc1 4.47%
CCOc1ccc(Nc2oc(-c3ccc(Cl)cc3)nc2C#N)cc1 25%
Cc1ccc(NC(=O)Cc2cccs2)cc1Cl 24.9%
